Experimental data from PubChem BioAssay (NCI).
“And” between values parts separate entries of the source, which are not always exact repeats. Equal entries are not always repeated.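 Following 48 hours of exposure in 96-well plates, responses at five concentrations were used to interpolate endpoints linearly. GI50 is the concentration that inhibits growth by half. Definition used: TGI = concentration required for complete inhibition of growth.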

Test system: NCI-H322M lung
Assay: inhibition of tumour cell growth, NCI panel, 48 h

SMILES | TGI | GI50
CCCCCCCCCCCCCCC(C(=O)[O-])[n+]1ccccc1 (stereo not given) | > 100 µM | 
O=C1CC(C(O)C(O)C(O)CO)CC(=O)N1 (stereo not given) | > 100 µM | 
C=C1CC(COc2ccc3c(C)c(Cl)c(=O)oc3c2)(c2ccccc2)OC1=O (stereo not given) | 12.1 µM | 
Cn1c(=O)c2c(nc(N3CCOCC3)n2CCCNCC(O)c2ccc(O)c(O)c2)n(C)c1=O (stereo not given) | > 100 µM | 
NNC(=O)C(O)C(O)C(O)CO (stereo not given) | > 100 µM | 
COc1ccc(C2CC(c3ccc4ccccc4c3)=NN2/C=C2\SC(=S)N(NC(=O)Cc3ccccc3Nc3c(Cl)cccc3Cl)C2=O)cc1 (stereo not given) | > 81 µM | 0.575 µM
COc1cc(/C=C2/CCCc3ccccc3C2=O)cc(OC)c1OC | > 59.7 µM | 
COC1=CC(=O)c2c(O)c3c(c(O)c2C1=O)OC1(Oc2c(cc4cc(C)oc(=O)c4c2O)CC1O)C3O (stereo not given) | > 100 µM | 
CC(=O)N(CN1C(=O)CCC1C(=O)O)c1ccc(C)cc1 (stereo not given) | > 100 µM | 
COc1ccc2c(c1)[n+]([O-])c(/C(C)=N/NC(N)=S)c(C)[n+]2[O-] | > 100 µM | 
Cc1ccc(N/N=C/C2=CC(C)(C)C(C#N)(C#N)C(O)=C2C#N)cc1 | > 100 µM | 
O=S1(=O)OCc2ccccc21 | > 100 µM | 
C=CC1CC12C(=O)C1OC2(C)C2C(=O)c3c(O)cccc3C(=O)C12 (stereo not given) | > 100 µM | 36.6 µM
O=c1[nH]c(=S)n(-c2cccc3ccccc23)c(O)c1/C=C1\C=Nc2ccccc21 | 6.93 µM | 
N=C(N)c1ccc(CS(=O)(=O)F)cc1 | > 100 µM | > 100 µM
COc1ccc(C(=O)NNC(=O)c2nsc3ccccc23)cc1 | > 100 µM | 
Nc1c(C(=O)c2cccc(C(O)(CO)CO)c2)cnn1-c1ccc(F)cc1 | > 25 µM | > 25 µM
CC(=O)NC1C(O)C(O)C(CO)OC1n1nc(SCc2ccccc2)c(=O)[nH]c1=O (stereo not given) | > 100 µM | 
CN1CCN2c3ccccc3CC(C#N)(C#N)C2C1 (stereo not given) | > 100 µM | 
CCCCCCCCCCCCCCCCC(=O)NCC(=O)NCC(=O)NC(Cc1ccccc1)C(=O)Oc1ccc([N+](=O)[O-])cc1 (stereo not given) | > 100 µM | 
CC(C)COC(=O)N1N=NC2C3CC(=O)C(O3)C21 (stereo not given) | > 100 µM | 
Nc1nc(Cl)cc(NCC2(CO)CC(CCCc3ccccc3)C2)n1 (stereo not given) | > 100 µM | 
CN(C)CCNC(=O)c1ccccc1Nc1c(Cl)cccc1Cl | 28.7 µM | 
CC1(C)CCCC2(C)C3=C(CCC12)C(=O)OC3 (stereo not given) | > 100 µM | 
N#CC1=C(c2ccccc2)NN(Cc2ccccc2)C(c2ccc(Cl)cc2)CC1=O (stereo not given) | 75.3 µM | 

SMILES | TGI | GI50
COc1cc(C(=O)O)cc2c1[nH]c1ccccc12 | > 25 µM | 
CCCCC1CCCCCCc2[nH]c(/C=C3\N=C(c4ccc[nH]4)C=C3OC)cc21 (stereo not given) | 9.31 µM | 
O=C1C2=C(C(=O)c3c(O)ccc(O)c31)N(c1cccnc1)Cc1ccccc1O2 | 9.64 µM | 2.73 µM
CC(SC(=S)N(C)C)C(=O)Nc1nnc(-c2ccc(Cl)cc2)o1 (stereo not given) | > 100 µM | 
CC1(C)[C@H]2CC[C@](C)(C2)[C@]1(S)Cc1ccccn1 | > 100 µM | 
COC(=O)c1ccc(CS(=O)(=O)c2ccccc2)cc1 | > 100 µM | 
COc1ccc(NC(=O)COc2ccccc2)c(C(N)=O)c1 | > 100 µM | 3.21 µM
O=c1/c(=C/c2ccccc2O)sc2nc3ccccc3n12 | > 100 µM | 
CC1(OCc2ccccc2)C(=O)N2C1N(C(=O)OCc1ccccc1)CC2(C)C (stereo not given) | > 100 µM | 
Nc1nc(=O)c2[nH]cnc2n1O | > 100 µM | 
CS(=O)(=O)OCCCCOS(C)(=O)=O | > 1000 µM | > 905 µM
CCN(CC)c1ccc(CNc2cc(C)nc3ccc(OC)cc23)cc1 | 8.49 µM | 2.84 µM
CC(=O)O[C@H]1C[C@H]2[C@@H]([C@H](OC(C)=O)C[C@@H]3CC4(CC[C@@]32C)OOC2(CCCCC2)OO4)[C@@H]2CC[C@H]([C@H](C)CCC(N)=O)[C@@]12C | 23.8 µM | 
Cc1cc(Cl)ccc1NC(=O)C1C(=O)C(=O)N(c2ccc(Cl)cc2C)C1=O (stereo not given) | > 100 µM | 
CC1OC(OC23C(=O)CC(C)(O)CC2(O)C=CC2=C3C(=O)c3ccc(C4CC(OC5CCC(OC6CC(O)C(O)C(C)O6)C(C)O5)C(O)C(C)O4)c(O)c3C2=O)CCC1O (stereo not given) | 66.5 µM and 64.1 µM | 
Clc1cc2nc[nH]c2cc1Cl | > 100 µM | 
C=C(c1ccc(OC)c(/C=C/C(=O)c2cc(OC)c(OC)c(OC)c2)c1)c1cc(OC)c(OC)c(OC)c1 | 18.6 µM | 2.93 µM
ClCCN(CC#CCCCC#CCN(CCCl)CCCl)CCCl | 31.2 µM | 
COC(=O)C12OCC34C(CC5C(C)C6=CC(=O)OC6=CC5(C)C3C(O)C1O)OC(=O)C(OC(C)=O)C24 (stereo not given) | 43.5 µM | 
S=C(Nc1ccc(Cl)cc1)c1ccc(CN2CCCCC2)s1 | 45.7 µM | 
CC(=O)N(C(=O)CC(=O)NNCc1ccccc1Cl)c1ccc(Cl)cc1 | > 10 µM | 
COc1ccc2nc(-c3ccc(Cl)cc3)cc(-c3nnc(SCC(=O)Nc4ccc(/C(C)=N\O)cc4)o3)c2c1 | 16.7 µM | 2.7 µM
Cc1cc(N(CCC#N)CCC#N)ccc1/C=C(\NC(=O)/C=C/c1ccccc1)NC(=O)Nc1ccccc1C | > 100 µM | 
COc1ccc2c(c1)C(=O)c1c-2n(CCCCl)c(=O)c2cc([N+](=O)[O-])ccc12 | 0.681 µM | 0.0788 µM
